# Reference: the supplement of paper PMC11417369
# Some of the results follow.
# Test system: PfHDP1 homeodomain (GST-tagged)
# Assay: gcPBM binding intensity (ln(normalized median fluorescence intensity)); higher = stronger DNA binding
# Outline: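 DNA-binding domains from P. falciparum, fused to GST and produced in E. coli, were put on an Agilent 4 × 180k double-stranded probe array for 1 h in 1× PBS holding 1% milk, 0.2 mg/ml BSA, 0.5% salmon testes DNA and 0.03% Triton X-100. Probes were primer-extended, 36 bp long and drawn from intergenic genomic regions, with negative controls included. After Alexa488 anti-GST antibody detection and a 488 nm scan, binding intensity was set as the highest Masliner-normalised natural-log median intensity across replicate spots of either probe orientation.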
row,Sequence,gcPBM binding intensity (ln)
1,ATCCTCTTTTTAAGTTGTACAGGGTCGAAAAAAAAA [XGTACX_site6852],6.42
2,GATTATTATTATAAGGGTACAAATATTTAATAAAAA [XGTACX_site7144],6.67
3,ACAAATACTAACAACGCATGTAAGCCTACAATAAAT [TGCATGCA_site551],6.6
4,GCTCCTTTTACCATCGCACACGATAAAAAAAAATAA [CACACA_site3255],7.08
5,ATTATATATATATATATATATATATATATATTATAT [CACACA_negctrl_site234],7.41
6,AATGTAATATAAATATGTACATATAAACTATATATA [XGTACX_site6871],6.38
7,GTTTTAAAACAAATATGTACACATAATATAGGAAAG [XGTACX_site1803],7.46
8,ACTTATGATTTATTTTGTACATATATACTATTCCTG [XGTACX_site5275],7.14
9,TTTTGAAATTTTTGTGTTTTTCCTTTTTATTTTATA [CACACA_negctrl_site1740],6.15
10,ATAAAGATTAATAAAATAAAATTCCGCAAACATATA [CACACA_negctrl_site244],6.44
11,ATAAATCCATGTAACTGTACTTTTTTTTTTTTTTTT [XGTACX_site7373],6.17
12,AAGTAATTTGTTGACACACACACACGCATACCTATA [CACACA_site7140],6.74
13,TCCCAATTTCTATCCTGTACAGACATAAATATATAC [XGTACX_site5937],6.99
14,TTTTTTTTCTAAATTATATGAAAATATATGTTATGT [GTGCAC_negctrl_site85],6.18
15,ACAATTTTAAAATGAACACACATGTTTTTCTTACTT [CACACA_site1014],6.86
16,ATTTTCTATTTTATTTGTACGTAATTTAATTTTTTT [XGTACX_site3609],7.08
17,TACATAAACATTTATACACACATTATAAATACATAT [CACACA_site4386],6.74
18,AATATTTTTTTATAAACACACATATATATAAATATA [CACACA_site3524],6.85
19,TATATATTTTTATGTGTGCACTGTTTCATAAAAGAA,10.1
20,TAATAATTTATATATGCATGTCAAAATAATATTAAA [TGCATGCA_site12],6.28
21,TATATAAATATAATATGTACATATAATATGTATATA [XGTACX_site8120],6.42
22,AAAAAAAAAAGGTGTACATGCAAAATAAATTCTTAA [TGCATGCA_site556],6.35
23,TATGGTAACATATGCTGTACAATATAATATGTTTAA [XGTACX_site1601],6.33

row,Sequence,gcPBM binding intensity (ln)
1,AAAAAAAAAAAACACACACACACACCGACAAAATAT [CACACA_site8411],6.9
2,TAAACATAAATATACACACAAACATATATGTATTTT [CACACA_site1214],6.67
3,AAATTATAAATACCTACACACTTATCAAAATAAATT [CACACA_site5280],6.1
4,ACTTATAAAATAACATGTACAAATATTTATTATATA [XGTACX_site133],6.26
5,AACAAAATAAATGTATGTACATATATATATATATAT [XGTACX_site7974],9.32
6,TGGGAGCACAGACACACACACACACCGATATATATA [CACACA_site8001],8.23
7,TATATTAAATATTACACACATACATTTAGTGTCAAA [CACACA_site1990],6.67
8,TCCTTACCTATTAAAGCATGCTCGAATATATATTTT [TGCATGCA_site53],7.48
9,GTGGACGAAATAGTTGTAAATTTATGTGCAAACCTC [XGTACX_negctrl_site564],11.2
10,ATATATATATCATATTGTACATACTTGTATTTATAT [XGTACX_site2432],8.34
11,GATGATATATATTAGCGTACATGTATATATACCATT [XGTACX_site6404],6.61
12,TAAATGAGAAGGACTGCACACTAAAATGGAAGGAGA [CACACA_site8449],7.29
13,AAAATTTCAAATAACACACACTAATATATATCTGTA [CACACA_site4904],6.23
14,AATGAATATAGTACTGAATGTAATTTAAGGTTTTCC [CACACA_negctrl_site1548],6.14
15,GCATAAATCAAACACACACACATATATATATATATA [CACACA_site2422],9.49
16,TATAATGGATGCTAGCTGCACTAATAAGCAAAAATA,6.68
17,ATTTATATATTGCCCACACACATGTGATTATTTATA [CACACA_site1714],7.31
18,ATATTAAAAAGAAGTGTGCGCAAAACATTAACTTGA,8.25
19,AATGGATGGTCCAAATGTACATATATATATATATAT [XGTACX_site4800],9.32
20,TAAATAAACCTGACTTGTACATGTAAAATAAATATA [XGTACX_site1667],6.23
21,ACATAAATAATAAAAACACACATATGTACAGATATA [CACACA_site5112],6.92
22,AATGGTACATGATACACACACGCACATATATATATT [CACACA_site3425],6.98
23,ATGTAGATATATATATGTACTAATTAGTAGTTTACG [XGTACX_site6275],6.94

row,Sequence,gcPBM binding intensity (ln)
1,AGAAAAAATAAAAATAGTACTCAAAAAATTATGAAT [XGTACX_site4908],6.24
2,AGAAAAAAAAAACACACACACACACCCTCAATATAA [CACACA_site39],6.56
3,TTAATTATATATAAAAGTACTTATTTTTCCATATAA [XGTACX_site3033],6.08
4,TAATAGGAAATTATAGGTACACATACAAATAAATAA [XGTACX_site3587],6.39
5,AAAAAAAAAAAAAAAACACACATTTCTTTTTCATAT [CACACA_site11],6.7
6,AATAATAATATATGTAGTACACATTTCCATTATGTT [XGTACX_site3708],6.6
7,TCATTAATCAGGTATGCATGCATAACTATTAAAAAT [TGCATGCA_site90],6.46
8,GTTATAAATGCATATACACACATACGTACATACATA [CACACA_site7655],7.14
9,TCTTTTTTTTTTATTTGTACTTATTTTTTTCAAAAA [XGTACX_site3403],6.61
10,AAAATAACGAGTCAAACACACATATTTATATTTATA [CACACA_site7050],6.24
11,TAATATAACTACATAACACACGAAAATATATGAATC [CACACA_site3628],6.92
12,AAATAGATAAACTAAACACACAAAAAAAAAAAAAAT [CACACA_site1179],6.35
13,TTATATGAAAAAATATGTACGTATAATGAGAAATAT [XGTACX_site8987],7.15
14,ATACGTATTTTCTTTTGTACATATATATAAAATATT [XGTACX_site2675],6.71
15,TTTATTTATTATTAAAGTACTAAAATATATTATTAT [XGTACX_site4887],6.24
16,AATATTGCACCATTTTGTACATAATATATTCAAATA [XGTACX_site475],10.3
17,TATATTTATTAGTTTCGTACGTACAAAGTTATTTTT [XGTACX_site8847],6.47
18,GTAGGTTTATATTGTAGTACATACAAACGTTAACAA [XGTACX_site5476],6.64
19,ACAAAATTGATATATGCACACATATATATATTAAAT [CACACA_site8152],9.87
20,AATATAATCTTTCAAAAGAAAAAGACTTCATGAAAA [CACACA_negctrl_site1331],6.2
21,ATATACGCATTAATAACACACAATATGATAACAAAT [CACACA_site3623],6.74
22,TATTTTAATATTTGTAGTACAGATTGAAATGACGAA [XGTACX_site4805],6.48
23,TTTTTTTTTGGGGGTGCATGCAAGACATATATTTAA [TGCATGCA_site228],9.38

row,Sequence,gcPBM binding intensity (ln)
1,CATACATATATATATACACACATACATATATATACA [CACACA_site8165],6.93
2,ATTCGTGAACTAGCCAAACACACGAAAAAAAAAAAA [CACACA_site3342],6.28
3,ATGTAACATAGGAAATGTACATATAAATATAATTTA [XGTACX_site6452],6.48
4,TTTTATTGATTATTCATAAATATGCTATTCATCTAA [CACACA_negctrl_site1084],5.99
5,TATTTTGTTCTTTCCACACACAAATACCTATCTTGT [CACACA_site7833],7.11
6,GCTATTTATTTATATTGTACTTTTTTTTTTTTTTTT [XGTACX_site3624],6.53
7,TTTTTTTTTTGATGTTGTACATATATATTATATAAT [XGTACX_site2765],6.59
8,TTAACAAATAGACACACACACACACGCAAAAAAAAA [CACACA_site6387],6.81
9,TTTTTTTTTCATTATTGTACATTGAAACTTCATTTT [XGTACX_site6041],6.6
10,ATATATATATTTACATGTACACATCTATATATAAAC [XGTACX_site5581],7.97
11,AAAAAAAAAAAATGTGCATGCTATATATATATATAT [TGCATGCA_site727],9.5
12,TAAAAACAAAAATGTTGTACATAATATAAAACAATT [XGTACX_site6380],6.07
13,CACACAATGGCTAGCTGTACATAATATATATCTACA [XGTACX_site4691],6.45
14,GAAAATAAAATAAATGCATGTAAATTTAATGTAATG [TGCATGCA_site996],6.88
15,TATATAAATATACAAACACACATACAAACATATATA [CACACA_site4754],6.96
16,AAAAAAAACGAACACACACACAAATATGTAAAAATA [CACACA_site6673],6.84
17,TCTCTAACTTTTAATACACACAAATAAATAAATAAA [CACACA_site6245],6.61
18,GTTTTATTTATTTCATGTACACAAAAAAGGTTTTAA [XGTACX_site6525],6.97
19,TACATACATACATACACACACACATATAAATACATA [CACACA_site4626],7.74
20,AAAATAAAATAATAAAATAAAATAATAATAAAATAA [TGCATGCA_negctrl_site401],6.27
